Test results from patent US20020123504A1, “Lactose-free, non-hygroscopic and anhydrous pharmaceutical compositions of descarboethoxyloratadine” (SEPRACOR INC., priority 1997, published 2002).

How the values were obtained:
[1] = Excipient compatibility of DCL by differential scanning calorimetry (DSC); details: 80% excipient to 20% drug
allergic bronchospasm = details: milligram by milligram basis; cited from earlier work

SMILES | DSC behavior, drug/excipient interaction ([1]; DCL dry blended with AVICEL microcrystalline cellulose) | DSC behavior, drug/excipient interaction ([1]; DCL dry blended with lactose (α-lactose monohydrate)) | Potency relative to terfenadine in the inhibition of allergic bronchospasm (allergic bronchospasm)
Clc1ccc2c(c1)CCc1cccnc1C2=C1CCNCC1 [DCL, 8-chloro-6,11-dihydro-11-(4-piperidylidene)-5H-benzo[5,6]cyclohepta[1,2-b]pyridine] | no interaction | active drug/excipient interaction | –
CCOC(=O)N1CCC(=C2c3ccc(Cl)cc3CCc3cccnc32)CC1 [Loratadine, loratadine] | – | – | four times more potent
